Test results from the supplement of paper PMC8728848.
Some of the results follow.

Experiments:
Experiment in all cases: glycan array binding signal (z-score within array); higher = stronger binding
Details in all cases: glycan notation: IUPAC condensed, linker removed
[1] = biological target: Neu5Ac(a2-6)Gal(b1-4)GlcNAc(b1-2)Man(a1-3)[Man(a1-6)]Man(b1-4)GlcNAc(b1-4)GlcNAc
Summary of the method: (§1)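 The Consortium for Functional Glycomics database supplied 3228 glycan arrays, of which those lacking an available protein sequence were dropped. The binding signal, a within-array Z-score, was averaged across arrays of the same protein sequence and across linkers. Negative scores can be read as non-binding.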

[2] = biological target: Neu5Ac(a2-6)Gal(b1-4)GlcNAc(b1-2)Man(a1-3)[Neu5Ac(a2-3)Gal(b1-4)GlcNAc(b1-2)Man(a1-6)]Man(b1-4)GlcNAc(b1-4)GlcNAc
Summary of the method: as §1

[3] = biological target: Neu5Ac(a2-6)Gal(b1-4)GlcNAc(b1-2)Man(a1-3)[Neu5Ac(a2-6)Gal(b1-4)GlcNAc(b1-2)Man(a1-6)]Man(b1-4)GlcNAc(b1-4)GlcNAc
Summary of the method: as §1

[4] = biological target: Neu5Ac(a2-6)Gal(b1-4)GlcNAc(b1-2)Man(a1-3)[Neu5Ac(a2-6)Gal(b1-4)GlcNAc(b1-2)Man(a1-6)]Man(b1-4)GlcNAc(b1-4)[Fuc(a1-6)]GlcNAc
Summary of the method: as §1

[5] = biological target: Neu5Ac(a2-6)Gal(b1-4)GlcNAc(b1-2)Man(a1-6)Man(b1-4)GlcNAc(b1-4)GlcNAc
Summary of the method: as §1

[6] = biological target: Neu5Ac(a2-6)Gal(b1-4)GlcNAc(b1-2)Man(a1-6)[Gal(b1-4)GlcNAc(b1-2)Man(a1-3)]Man(b1-4)GlcNAc(b1-4)GlcNAc
Summary of the method: as §1

[7] = biological target: Neu5Ac(a2-6)Gal(b1-4)GlcNAc(b1-2)Man(a1-6)[GlcNAc(b1-2)Man(a1-3)]Man(b1-4)GlcNAc(b1-4)GlcNAc
Summary of the method: as §1

[8] = biological target: Neu5Ac(a2-6)Gal(b1-4)GlcNAc(b1-2)Man(a1-6)[Man(a1-3)]Man(b1-4)GlcNAc(b1-4)GlcNAc
Summary of the method: as §1

[9] = biological target: Neu5Ac(a2-6)Gal(b1-4)GlcNAc(b1-2)[Neu5Ac(a2-6)Gal(b1-4)GlcNAc(b1-4)]Man(a1-3)[GlcNAc(b1-4)][Neu5Ac(a2-6)Gal(b1-4)GlcNAc(b1-2)[Neu5Ac(a2-6)Gal(b1-4)GlcNAc(b1-6)]Man(a1-6)]Man(b1-4)GlcNAc(b1-4)GlcNAc
Summary of the method: as §1

[10] = biological target: Neu5Ac(a2-6)Gal(b1-4)GlcNAc(b1-2)[Neu5Ac(a2-6)Gal(b1-4)GlcNAc(b1-4)]Man(a1-3)[GlcNAc(b1-4)][Neu5Ac(a2-6)Gal(b1-4)GlcNAc(b1-4)Man(a1-6)]Man(b1-4)GlcNAc(b1-4)GlcNAc
Summary of the method: as §1

[11] = biological target: Neu5Ac(a2-6)Gal(b1-4)GlcNAc(b1-2)[Neu5Ac(a2-6)Gal(b1-4)GlcNAc(b1-6)]Man(a1-6)[Neu5Ac(a2-6)Gal(b1-4)GlcNAc(b1-2)Man(a1-3)][GlcNAc(b1-4)]Man(b1-4)GlcNAc(b1-4)GlcNAc
Summary of the method: as §1

[12] = biological target: Neu5Ac(a2-6)Gal(b1-4)GlcNAc(b1-3)Gal(b1-3)GlcNAc
Summary of the method: as §1

[13] = biological target: Neu5Ac(a2-6)Gal(b1-4)GlcNAc(b1-3)Gal(b1-4)GlcNAc
Summary of the method: as §1

[14] = biological target: Neu5Ac(a2-6)Gal(b1-4)GlcNAc(b1-3)Gal(b1-4)GlcNAc(b1-2)Man(a1-3)[Neu5Ac(a2-6)Gal(b1-4)GlcNAc(b1-3)Gal(b1-4)GlcNAc(b1-2)Man(a1-6)]GalNAc
Summary of the method: as §1

[15] = biological target: Neu5Ac(a2-6)Gal(b1-4)GlcNAc(b1-3)Gal(b1-4)GlcNAc(b1-3)Gal(b1-4)GlcNAc
Summary of the method: as §1

[16] = biological target: Neu5Ac(a2-6)Gal(b1-4)GlcNAc(b1-3)Gal(b1-4)GlcNAc(b1-3)Gal(b1-4)GlcNAc(b1-2)Man(a1-3)[Neu5Ac(a2-6)Gal(b1-4)GlcNAc(b1-3)Gal(b1-4)GlcNAc(b1-3)Gal(b1-4)GlcNAc(b1-2)Man(a1-6)]GalNAc
Summary of the method: as §1

[17] = biological target: Neu5Ac(a2-6)Gal(b1-4)GlcNAc(b1-3)Gal(b1-4)GlcNAc(b1-3)GalNAc
Summary of the method: as §1

[18] = biological target: Neu5Ac(a2-6)Gal(b1-4)GlcNAc(b1-3)Gal(b1-4)GlcNAc(b1-3)[Neu5Ac(a2-6)Gal(b1-4)GlcNAc(b1-3)Gal(b1-4)GlcNAc(b1-6)]GalNAc
Summary of the method: as §1

[19] = biological target: Neu5Ac(a2-6)Gal(b1-4)GlcNAc(b1-3)Gal(b1-4)GlcNAc(b1-6)[Gal(b1-3)]GalNAc
Summary of the method: as §1

[20] = biological target: Neu5Ac(a2-6)Gal(b1-4)GlcNAc(b1-3)Gal(b1-4)[Fuc(a1-3)]GlcNAc(b1-3)Gal(b1-4)[Fuc(a1-3)]GlcNAc
Summary of the method: as §1

[21] = biological target: Neu5Ac(a2-6)Gal(b1-4)GlcNAc(b1-3)GalNAc
Summary of the method: as §1

[22] = biological target: Neu5Ac(a2-6)Gal(b1-4)GlcNAc(b1-3)[Neu5Ac(a2-6)Gal(b1-4)GlcNAc(b1-6)]GalNAc
Summary of the method: as §1

[23] = biological target: Neu5Ac(a2-6)Gal(b1-4)GlcNAc(b1-6)GalNAc
Summary of the method: as §1

[24] = biological target: Neu5Ac(a2-6)Gal(b1-4)GlcNAc(b1-6)[Gal(b1-3)GlcNAc(b1-3)]Gal(b1-4)Glc
Summary of the method: as §1

[25] = biological target: Neu5Ac(a2-6)Gal(b1-4)GlcNAc(b1-6)[Gal(b1-3)]GalNAc
Summary of the method: as §1

[26] = biological target: Neu5Ac(a2-6)Gal(b1-4)GlcNAc6S
Summary of the method: as §1

Neu5Ac(a2-6)GalNAc = biological target: Neu5Ac(a2-6)GalNAc
Summary of the method: as §1

[27] = biological target: Neu5Ac(a2-6)GalNAc(b1-4)GlcNAc
Summary of the method: as §1

[28] = biological target: Neu5Ac(a2-6)GalNAc(b1-4)GlcNAc6S
Summary of the method: as §1

[29] = biological target: Neu5Ac(a2-6)GlcNAc(b1-4)GlcNAc
Summary of the method: as §1

[30] = biological target: Neu5Ac(a2-6)GlcNAc(b1-4)GlcNAc(b1-4)GlcNAc
Summary of the method: as §1

B1: GS13455A-bfa-343-25-343 (Bacteroides fragilis) (protein)
chain: KDEIQIVDQDTSWQMDNKYIEEDIREQLGIDPFTDLVYLGYYGNPYTQLEAINDLVNTTLVGKNELSFKVKVTKPYKEDIKVNLMKEDKLVTDFPEMAEGIPLFPSENCTFEGGVLKAGELETTVKLTLKDVEKLNNLSGYVMAIKLTMEGSHEHLAIARTRSSYFVKLNLSIRLDNIDSSNKKIEGKGFNKEISFKSDIRPDKLGSLNDGNFTANNWYTSNANNYLTIILPEKQSLKGFRLDTNTSPSGSYMLKSCRVMVETPDGNWVNHGVFDRKSMDGIAYISFKKPVECTKVRFENMMAFNGRFSVDVNEVTAFR
B1 was tested, and the “glycan array binding signal (z-score)” value [1] was 0.055, the “glycan array binding signal (z-score)” value [2] was -0.17 and the “glycan array binding signal (z-score)” value [3] was -0.361. For the same binder, the “glycan array binding signal (z-score)” value [4] was -0.034, the “glycan array binding signal (z-score)” value [5] was -0.353 and the “glycan array binding signal (z-score)” value [6] was -0.3. The “glycan array binding signal (z-score)” value [7] was -0.541, the “glycan array binding signal (z-score)” value [8] was -0.043 and the “glycan array binding signal (z-score)” value [9] was -0.595. The “glycan array binding signal (z-score)” value [10] was -0.261, the “glycan array binding signal (z-score)” value [11] was -0.774 and the “glycan array binding signal (z-score)” value [12] was -0.353. For the same binder, the “glycan array binding signal (z-score)” value [13] was -0.228, the “glycan array binding signal (z-score)” value [14] was 0.427 and the “glycan array binding signal (z-score)” value [15] was -0.765. For the same binder, the “glycan array binding signal (z-score)” value [16] was 0.955, the “glycan array binding signal (z-score)” value [17] was -0.338 and the “glycan array binding signal (z-score)” value [18] was -0.082. For the same binder, the “glycan array binding signal (z-score)” value [19] was -0.578, the “glycan array binding signal (z-score)” value [20] was 0.113 and the “glycan array binding signal (z-score)” value [21] was 0.453. The “glycan array binding signal (z-score)” value [22] was -0.978, the “glycan array binding signal (z-score)” value [23] was -0.42 and the “glycan array binding signal (z-score)” value [24] was -0.866. The “glycan array binding signal (z-score)” value [25] was -0.662, the “glycan array binding signal (z-score)” value [26] was -0.614 and the “glycan array binding signal (z-score)” value (Neu5Ac(a2-6)GalNAc) was -0.397. The “glycan array binding signal (z-score)” value [27] was -0.322, the “glycan array binding signal (z-score)” value [28] was -0.331 and the “glycan array binding signal (z-score)” value [29] was -0.372. The “glycan array binding signal (z-score)” value [30] was 0.055.
